From US9957330B2, “Polypeptides” (AFFIBODY AB, priority 2012, dated 2018) come the findings set out here.

The target of one assay is T1, biotinylated human CAIX (Homo sapiens, UniProt Q16790).
T1 construct: purchased R&D Systems 2188-CA
Kind of assay: ELISA KD analysis (target titration) of CAIX binders. The class given is binding. Particulars: ELISA titration of biotinylated human CAIX 24 nM to 38 pM; periplasm samples, Z variant ABD fusions. As for the experimental part: Single colonies containing Z variants (expressed as Z variant ABD fusion proteins as described in Example 3) were randomly picked from the selected clones of the CAIX maturated library and grown in 1 ml cultivations as described in Example 1. Periplasmic proteins were released by 6 repeated freeze-thawing cycles. ELISA screenings were performed essentially as described in Example 1 with the following exceptions. Half-area 96-well ELISA plates were coated with 2 μg/ml of an ABD specific goat antibody (produced in-house) diluted in coating buffer. The antibody solution was poured off and the wells were blocked with 100 μl of PBSC (PBS supplemented with 0.5% casein; Sigma, cat. no. C8654) for 1.5 h at RT. Biotinylated human CAIX was used at a concentration of 0.25 μg/ml (6 nM) diluted in PBSC and incubation was performed for 1 h. Streptavidin conjugated HRP was obtained from Thermo Scientific (cat. no. N100) and diluted 1:30,000 in PBSC before addition to the wells and incubated for 45 min. […] Absorbance of the wells was measured at 450 nm using a multi-well plate reader, Victor^3 (Perkin Elmer). […]
A selection of CAIX binders was subjected to an analysis of the response against a dilution series of biotinylated human CAIX using ELISA as described above. […] Obtained values were analyzed using GraphPad Prism 5 and non-linear regression.
In the case of “Z06943: matured CAIX binding Z variant, 58 residues, SEQ ID NO:245 (VDAKYAKENLFAGWEITDLPNLTDYQRHAFIYKLWDDPSQSSELLSEAKKLNDSQAPK; Engineered CAIX-binding polypeptide)”, the “KD ELISA” value is “Ambiguous”.

With “Z06941: matured CAIX binding Z variant, 58 residues, SEQ ID NO:281 (VDAKYAKENIFAGWEIDDLPNLTDNQRHAFIYKLWDDPSQSSELLSEAKKLNDSQAPK; Engineered CAIX-binding polypeptide)”, the “KD ELISA” value is “Interrupted”.

The target of a further assay is T2, CAIX on SK-RC-52 cells (Homo sapiens, UniProt Q16790).
T2 construct: The CAIX-expressing renal clear cell carcinoma cell line SK-RC-52; endogenous in cells; host or cells: SK-RC-52 renal clear cell carcinoma cells (provided by Active Biotech, Sweden)
Kind of assay: Immunofluorescence staining of SK-RC-52 cells for flow cytometry analysis. Particulars: flow cytometry titration 2, 0.5, 0.05 and 0.003 μg/ml, monomer format. Format: cell-based. The procedure: SK-RC-52 cells (renal clear cell carcinoma cell line; kindly provided by Active Biotech, Sweden) were cultured in RPMI-1640 (Lonza) with the addition of 10% FCS, 1% glutamine and 1% PEST (penicillin-streptomycin). On the day of assay, SK-RC-52 cells were trypsinated, counted and 0.1-0.2×10^6 cells added to 5 ml falcon tubes. The cells were pelleted by centrifugation at 1200 rpm and supernatant removed. The cells were stained with following maturated Z variants in monomer format; Z06919, Z06936, Z06942, Z06959, Z06961, Z06976, Z06984, Z06986, Z06999, Z07084, Z07089 and Z07091. For screening, 100 μl of 12 different binders diluted in PBS 2% FCS to 10 μg/ml was added and cells were incubated for two hours at 4° C. Alternatively, the binders were titrated for EC50 value calculations at four different concentrations: 2, 0.5, 0.05 and 0.003 μg/ml. Z variant Z08693, which corresponds to Z variant Z04196 identified in Example 1 but for the amino acid substitution A54S, was included in the assay for comparison. A Z variant binding to an unrelated target was used as negative control and PBS was used as background control. The cells were washed once by filling up the tube with PBS and pelleting the cells by centrifugation. The pelleted cells were resuspended in 100 μl of a goat anti-Z variant-specific Ig, 5 μg/ml and incubated for one hour at 4° C. A goat anti-CAIX specific antibody, MAB2188 (R&D systems), was included as a positive control at a concentration of 5 μg/ml. Cells were subsequently washed in PBS as described and resuspended in 100 μl of Alexa488-labeled anti-goat antibody (Invitrogen) at a concentration of 10 μg/ml. After 45 minutes of incubation at 4° C., cells were washed in PBS, resuspended in 300 μl of PBS and subjected to FACS analysis using a FACSCantoll. The MFI was recorded.
(Flow cytometry measures light scatter and fluorescence of single cells or particles in a stream.)
In turn, “Z07089: matured CAIX binding Z variant, 58 residues, SEQ ID NO:239 (VDAKYAKENIFAGWEITDLPNLTVQQRHAFIYKLWDDPSQSSELLSEAKKLNDSQAPK; His6 tag; Engineered CAIX-binding polypeptide)” returned a concentration giving a half-maximal response (EC50) of 12 nM.

Turning to “Z06919: matured CAIX binding Z variant, 58 residues, SEQ ID NO:232 (VDAKYAKEHLFAGWEIEDLPNLTEYQRNAFIYKLWDDPSQSSELLSEAKKLNDSQAPK; His6 tag; Engineered CAIX-binding polypeptide)”, the response was half-maximal at 20 nM (EC50).

For the substance “Z06961: matured CAIX binding Z variant, 58 residues, SEQ ID NO:234 (VDAKYAKENLFAGWEIGDLPNLTEQQRHAFIYKLWDDPSQSSELLSEAKKLNDSQAPK; His6 tag; Engineered CAIX-binding polypeptide)”, it took 17 nM to reach a half-maximal effect (EC50).

Turning to “Z06986: matured CAIX binding Z variant, 58 residues, SEQ ID NO:237 (VDAKYAKENLFAGWEINDLPNLTEYQRNAFIYKLWDDPSQSSELLSEAKKLNDSQAPK; His6 tag; Engineered CAIX-binding polypeptide)”, the EC50 is 12 nM.

The substance “Z06959: matured CAIX binding Z variant, 58 residues, SEQ ID NO:233 (VDAKYAKENLFAGWEITDLPNLTIEQRNAFIYKLWDDPSQSSELLSEAKKLNDSQAPK; His6 tag; Engineered CAIX-binding polypeptide)” had an EC50 of 18 nM.

Turning to “Z07091: matured CAIX binding Z variant, 58 residues, SEQ ID NO:230 (VDAKYAKENLFAGWEIDDLPNLTESQRNAFIYKLWDDPSQSSELLSEAKKLNDSQAPK; His6 tag; Engineered CAIX-binding polypeptide)”, the EC50 was 18 nM.

The substance “Z06984: matured CAIX binding Z variant, 58 residues, SEQ ID NO:236 (VDAKYAKENIFAGWEIDDLPNLTTYQRNAFIYKLWDDPSQSSELLSEAKKLNDSQAPK; His6 tag; Engineered CAIX-binding polypeptide)” registered an EC50 of 11 nM.

The substance “Z06999: matured CAIX binding Z variant, 58 residues, SEQ ID NO:238 (VDAKYAKEHLFAGWEITDLPNLTEQQRNAFIYKLWDDPSQSSELLSEAKKLNDSQAPK; His6 tag; Engineered CAIX-binding polypeptide)” displayed an EC50 of 16 nM.

The substance “Z08693: Z variant (SEQ ID NO:358) corresponding to Z04196 but for the amino acid substitution A54S (VDAKYAKEWKFASIEIADLPNLTQHQKDAFIFKLWDDPSQSSELLAEAKKLNDSQAPK; N-terminal His6 tag; Engineered CAIX binding polypeptide)” yielded an EC50 of approximately 1800 nM.

The same assay, now with this note: flow cytometry titration 2, 0.5, 0.05 and 0.003 μg/ml, monomer format, listed as His6-Z08693.
For the substance “Z08693: Z variant (SEQ ID NO:358) corresponding to Z04196 but for the amino acid substitution A54S (VDAKYAKEWKFASIEIADLPNLTQHQKDAFIFKLWDDPSQSSELLAEAKKLNDSQAPK; N-terminal His6 tag; Engineered CAIX binding polypeptide)”, the EC50 stood at 1820 nM.

For orientation: EC50 means the concentration that produces a half-maximal response.
